In PubChem BioAssay AID651820 (National Center for Advancing Translational Sciences (NCATS), 2012):
The campaign covered roughly 340,000 compounds. About 12,000 (3.5%) were called active. This list was built around the results that the source calls inconclusive (neither active nor inactive); the mix of calls is not that of the screen. The call rests on the fitted dose curve; in most records, active means well fitted inhibition curve with a large enough effect; inconclusive means small, poorly fitted or top-dose-only effect, or another doubt; inactive means no such curve, though single readings can be large or run the other way. No potency is given beside an inconclusive call; the fits are too rough.

experiment: qHTS Assay for Inhibitors of Hepatitis C Virus (HCV); conditions: Huh7.5.1 HCVcc-Cre (HCVcc is cell-culture hepatitis C virus) infection, luciferase reporter, 44 h; activity change, negative = inhibition: at 41.8 µM (top of the series)
Method in brief: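 1,000 cells/well; 4 h culture; + compound; + HCVcc-Cre (~0.5 moi); 44 h; luciferase substrate, RT 15 min; read 15 sec.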
On the % scale 0 is the no-effect control and ±100 the full control effect; potency means the concentration at half of the fitted maximal effect; tags describe the fitted curve by direction and shape.

| Compound | Potency | activity change, negative = inhibition |
| --- | --- | --- |
| CC/C(=C(\c1ccc(O)cc1)c1ccc(OCCN(C)C)cc1)c1ccccc1 | inconclusive [inhibitor, partial curve] |  |
| COC(=O)c1sc(=S)n(-c2cccc(Cl)c2)c1N |  | inactive: 1.29% |
| c1ccc(CNc2nc(N3CCN(Cc4ccccc4)CC3)nc3ccccc23)cc1 |  | inconclusive: -82.1% [inhibitor] |
| O=C(/C=C/c1ccc(Cl)cc1Cl)Nc1cccc(S(=O)(=O)NC2=NCCC2)c1 | inconclusive [inhibitor, full curve] |  |
| Cc1noc(C)c1C(=O)Nc1cc(S(=O)(=O)N2CCCCC2)ccc1N(C)C | inconclusive [inhibitor, partial curve] |  |
| O=[N+]([O-])c1ccc(P(=O)(Cc2ccccc2)c2ccccc2O)cc1 (configuration not stated) |  | inactive: 5.93% |
| CC(OC(=O)c1ccc(Cl)nc1)C(=O)NCc1ccc2c(c1)OCO2 (configuration not stated) | inconclusive [inhibitor, single point] |  |
| O=C(COC(=O)c1ccccc1C(=O)c1ccccc1)Nc1ccc(SC(F)F)cc1 |  | inactive: -27.4% |
| CCOc1ccccc1C(=O)Nc1nnc(Cc2ccc(OC)c(OC)c2)s1 | inconclusive [inhibitor, partial curve] |  |
| CCOC(=O)C1(Cc2cccc(F)c2)CCN(Cc2c(C)nn(CC)c2C)CC1 | active: 12.6 µM |  |
| Cc1cccc(C(=O)OCC(=O)N2CCc3ccccc3C2)c1O |  | inactive: -1.71% |
| O=C(Nc1nc(-c2cccs2)cs1)c1ccc([N+](=O)[O-])o1 | inconclusive [inhibitor, single point] |  |
| Cc1ccc(S(=O)(=O)N(C)C)cc1NC(=O)COC(=O)c1c(-c2ccccc2)noc1C | inconclusive [inhibitor, partial curve] |  |
| O=C(Cc1ccc(Cl)cc1)Nc1cccc(-c2nnc(-c3ccco3)o2)c1 | inconclusive [inhibitor, single point] |  |
| CC(C)COc1ccc(CN=C(N)N=C(N)N)cc1Cl | inconclusive [inhibitor, full curve] |  |
| CCn1c(NCCc2ccc(OC)c(OC)c2)nc2c1c(=O)n(C)c(=O)n2C | active: 11.2 µM |  |
| CCN(CC)C(=O)Oc1cc2c(-c3cc4cccc(OC)c4o3)cc(=O)oc2cc1C | active: 6.31 µM |  |
| COc1cc(/C=C(/C#N)C(=O)Nc2ccc(C)cc2)ccc1Oc1nc(Cl)ncc1F | inconclusive [inhibitor, single point] |  |
| COc1ccc(CCCc2nnc(SCC(=O)N/N=C\c3ccc(O)c(OC)c3)o2)cc1C | inconclusive [inhibitor, partial curve] |  |
| Cc1cccc(C)c1OCc1nnc(SCC(=O)NCCc2ccccc2)o1 | inactive |  |
| Cc1ccsc1C(=O)N/N=C/C=C/c1ccccc1[N+](=O)[O-] | inconclusive [inhibitor, partial curve] |  |
| Cc1c2c(n3c(nc4ccccc43)c1C#N)N(CCCN(C)C)CC2 | inconclusive [inhibitor, single point] |  |
| COC(=O)c1ccc2c(=O)n(Cc3ccc(C(=O)NCCCN4CCC(C)CC4)cc3)c(=S)[nH]c2c1 | inconclusive [inhibitor, partial curve] |  |

| Compound | Potency | activity change, negative = inhibition |
| --- | --- | --- |
| O=C(Nc1cc([N+](=O)[O-])ccc1N1CCCC1)c1ccccc1 | inconclusive [inhibitor, full curve, poor fit] |  |
| COc1ccccc1N1CCN(C(=O)c2cc3cc(Cl)ccc3[nH]2)CC1 | inconclusive [inhibitor, partial curve] |  |
| CCC1=NN(C(=O)c2ccc([N+](=O)[O-])cc2)C(O)(c2ccccc2)C1 (configuration not stated) | inconclusive [inhibitor, single point] |  |
| CCC(O)CNC(=O)NC(=C(Cl)Cl)c1ccc(C)c(F)c1 (configuration not stated) | active: 15.8 µM |  |
| CCC(CN(C)C)Oc1cc(NCc2ccccc2)c2ncn(C(C)C)c2c1 (configuration not stated) | inconclusive [inhibitor, single point] |  |
| CC(=O)Nc1nnc(SCc2ccc(F)cc2)s1 |  | inactive: 4.97% |
| Cc1cc(N)n(-c2cc(C)c3ccccc3n2)n1 |  | inactive: -9.14% |
| Cc1ccc2cc(C#N)c(N3CCCN(C(=O)C4CCCO4)CC3)nc2c1 (configuration not stated) |  | inactive: 1.44% |
| Cn1c2ccccc2c2c(C(=O)N3CCN(c4ccccc4)CC3)cn(C3CCCC3)c(=O)c21 | inconclusive [inhibitor, single point] |  |
| COc1ccccc1CNCC(=O)Nc1ccc(N2CCOCC2)cc1 | inconclusive [inhibitor, partial curve] |  |
| CC(C)(C)n1ncc2c(=O)n(CC(=O)NCc3ccco3)cnc21 | inconclusive [inhibitor, single point] |  |
| CCOc1cc(N2CCOCC2)c(OCC)cc1NC(=O)CN1C(=O)NC2(CCCCC2)C1=O | inconclusive [inhibitor, single point] |  |
| Cn1/c(=N/NC(=O)c2cccc(OC(F)F)c2)sc2ccccc21 | inconclusive [inhibitor, single point] |  |
| O=C(Nc1ccccc1N1CCCC1)c1ccc(Br)o1 | inconclusive [inhibitor, partial curve] |  |
| COc1ccc(C2(C)NC(=O)N(CC(=O)NC(C)c3ccc(CC(C)C)cc3)C2=O)cc1 (configuration not stated) | inconclusive [inhibitor, single point] |  |
| Cc1cccc(Cn2c(=O)n(-c3ccc(CC(=O)NCc4ccco4)cc3)c(=O)c3sccc32)c1 | inconclusive [inhibitor, single point] |  |
| Cc1cccc(-c2nc(CN3CCN(C(=O)C4CCCO4)CC3)cs2)c1 (configuration not stated) | inconclusive [inhibitor, full curve, poor fit] |  |
| COc1ccc(-c2cc3c(=O)n(CC(=O)NCc4ccc(Cl)cc4)ncn3n2)cc1 |  | inactive: 14.5% |
| COc1ccc(C(=O)/C=C/c2ccccc2)c(O)c1 | inconclusive [inhibitor, partial curve, poor fit] |  |
| CC(C)(C)NC(=O)C(c1ccc(O)cc1)N(C(=O)Cn1nnc(-c2ccc(F)cc2)n1)c1ccccc1F (configuration not stated) | active: 4.47 µM |  |
| Clc1ccccc1Cn1nnc2c(N3CCOCC3)nc(C3CC3)nc21 | inconclusive [inhibitor, full curve] |  |
| O=C(COc1ccccc1)Nc1ccc2c(c1)Cc1cc(NC(=O)COc3ccccc3)ccc1-2 | inconclusive [inhibitor, single point] |  |
| CCNC(=S)Nc1cc2oc3ccccc3c2cc1OC | active: 22.4 µM |  |

| Compound | Potency | activity change, negative = inhibition |
| --- | --- | --- |
| CCCNC(=O)Cn1c(=O)n(C)c2ccccc21 |  | inactive: 16.8% |
| CCOC(=O)CC1Sc2ccccc2NC1=O (configuration not stated) |  | inactive: 9.77% |
| CC(C)[C@H](NC(=O)N1C[C@H]2C[C@@H](C1)c1cccc(=O)n1C2)C(=O)Nc1ccccc1F | inconclusive [inhibitor, full curve, poor fit] |  |
| Cc1cccc(NC(=O)c2cccc([N+](=O)[O-])c2O)c1C | inconclusive [inhibitor, single point] |  |
| COc1ccc(C)cc1NC(=O)CN(Cc1nnc(-c2ccc(Cl)cc2)o1)C1CCCC1 | active: 7.94 µM |  |
| CCCc1ccc(-c2csc(NC(=O)C3=COCCO3)n2)cc1 | inconclusive [inhibitor, single point] |  |
| Cc1ccc(CCc2nnc(SCC(=O)Nc3cc(Cl)ccc3Cl)n2-c2ccccc2)o1 | inconclusive [inhibitor, partial curve] |  |
| Cc1[nH]c(N=Nc2ccccc2)nc1N=Nc1ccccc1 | active: 12.6 µM |  |
| COc1ccc(N2CCN(C(CNC(=O)OCc3ccccc3)c3ccco3)CC2)cc1 (configuration not stated) | inconclusive [inhibitor, single point] |  |
| NC(N)=NC(=O)Cc1c(Cl)cccc1Cl | inactive |  |
| CC1=Nc2cccc3cccc(c23)N1C | inconclusive [inhibitor, single point] |  |
| CN(C)c1ccc(/C=N\NC(=O)c2cccc3cc[nH]c23)cc1 | inconclusive [inhibitor, partial curve] |  |
| O=C(COC(=O)c1ccc(O)cc1O)Nc1ccc2ccccc2c1 | inconclusive [inhibitor, single point] |  |
| COC(=O)c1c(C(=O)OC)c(-c2ccc(C)cc2)n2c1CCC2 | inconclusive [inhibitor, single point] |  |
| O=C(NCc1ccc2c(c1)OCO2)c1ccc2c(=O)n(C3CCCC3)c(=O)[nH]c2c1 | inconclusive [inhibitor, partial curve] |  |
| O=P(Nc1ccccc1)(Nc1ccccc1)Oc1ccc(Cl)cc1 | inconclusive [inhibitor, single point] |  |
| Cc1ccc(NC(=S)Nc2cc(C(=O)O)ccc2N2CC3CC(C2)c2cccc(=O)n2C3)cc1C (configuration not stated) | inconclusive [inhibitor, single point] |  |
| C#CCOCCOCCOCCNc1nc(N2CCN(C(=O)CCCCCCCCCCNC(=O)[C@H](CCCCN)n3cc(C[C@@H](C)CC)nn3)CC2)nc(N2CCN(C(=O)CCCCCCCCCCNC(=O)[C@@H]([C@H](C)O)n3cc(C)nn3)CC2)n1 | inconclusive [inhibitor, single point] |  |
| CCOc1ccc(OCC)c(NC(=O)C2CCCN(C(=O)c3ccc(Cl)cc3)C2)c1 (configuration not stated) | inconclusive [inhibitor, full curve, poor fit] |  |
| CCN(CC)S(=O)(=O)c1ccc(OC)c(NC(=S)Nc2cc(C)ccc2C)c1 |  | inactive: -21.3% |
| CSc1n[nH]c(-c2sccc2OCc2ccc(C)cc2)n1 | inconclusive [inhibitor, full curve, poor fit] |  |
